Read-outs that look alike come from different tables or passages of the source.
Key:
P1243_AMBAM [1] = target: T1, P1243_AMBAM (Amblyomma americanum, UniProt A0A0C9S461 26-123); assay: BLI
T1 sequence: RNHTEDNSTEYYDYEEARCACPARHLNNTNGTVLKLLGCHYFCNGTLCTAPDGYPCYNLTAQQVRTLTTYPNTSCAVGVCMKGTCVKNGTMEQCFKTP

P1243_AMBAM [2] = target: T1, P1243_AMBAM; assay: BLI; remark: listed apart in the source
P1156_IXORI [3] = target: T2, P1156_IXORI (Ixodes ricinus, UniProt V5HBW0 29-108); assay: BLI [Cont.) C]
T2 sequence: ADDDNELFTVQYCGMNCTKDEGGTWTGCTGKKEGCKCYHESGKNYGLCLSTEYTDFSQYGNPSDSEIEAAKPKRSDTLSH

P1156_IXORI [4] = target: T2, P1156_IXORI; assay: BLI
P1156_IXORI [5] = target: T2, P1156_IXORI; assay: BLI; remark: listed apart in the source

B1: CCL20_HUMAN (ligand)
chain: not shown
- Kd (P1243_AMBAM [1]): 8.34 nM
- Kd (P1243_AMBAM [2]): 8.33 nM

B2: CXCL8_HUMAN (ligand)
chain: not shown
- Kd (P1156_IXORI [3]): 4.67 nM
- Kd (P1156_IXORI [4]): 4.6 nM

B3: CXCL5_HUMAN (ligand)
chain: not shown
- Kd (P1156_IXORI [3]): 71.9 nM
- Kd (P1156_IXORI [5]): 39.9 nM
